Holding throughout (assay): Viability of human cancer cell lines after 72 h of drug (GDSC screen)
Compound in one assay: Fc1cc(-c2ccnc(Nc3ccc(-n4cnc(N5CCOCC5)n4)cc3)n2)cc(N2CCOCC2)c1 [JNK-9L]
The note with it: top dose 5.12 µM; top dose inferred. As for the experimental part:
(§1)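 Human cancer cell lines in 384-well plates, medium with 10% serum, drug for 72 h over a 256-fold dose range (nine 2-fold or five 4-fold steps up to the top dose). Adherent lines were fixed and stained with the nucleic acid dye Syto60, suspension lines read with resazurin; signal relative to control wells, capped at 0 and 100%. One two-parameter sigmoid per drug and line, fitted in a mixed model over all curves with the slope shared within a line.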

Compound in a further assay: O=c1[nH]cc(F)c(=O)[nH]1 [5-Fluorouracil]
The note with it: top dose 32 µM; top dose inferred. The protocol: as §1

Compound in a further assay: NCC(=O)Nc1ccc(-n2nc(C(F)(F)F)cc2-c2ccc3c(ccc4ccccc43)c2)cc1 [OSU-03012]
The note with it: top dose 16 µM; top dose inferred. The protocol:
as §1

Compound in a further assay: OC[C@H](Cc1ccccc1)Nc1nc(Oc2ccc3c(c2)CCC3)nc2c1ncn2Cc1ccc(-c2ccccc2)cc1 [QS11]
Particulars: top dose 10.24 µM. The protocol:
as §1

Compound in a further assay: CC(C)(C)c1cc(NC(=O)Nc2ccc(-c3cn4c(n3)sc3cc(OCCN5CCOCC5)ccc34)cc2)no1 [AC220]
The note with it: top dose 1.024 µM; top dose inferred. As for the experimental part:
as §1

Compound in the next assay: C#Cc1cccc(Nc2ncnc3cc(OC)c(OCCCCCCC(=O)NO)cc23)c1 [CUDC-101]
The note with it: top dose 5.12 µM; top dose inferred. The protocol: as §1

Compound in a further assay: COc1cc(F)c(F)c(Nc2ccc(I)cc2F)c1NS(=O)(=O)C1(C[C@H](O)CO)CC1 [RDEA119]
The note with it: top dose 5 µM, top dose inferred. The protocol: as §1

IC50 is the fitted dose that halves viability relative to control wells, and lower means more sensitive; fits outside the tested doses are given as limits. The AUC spans the tested range (256-fold, ending at the top dose) of the same fit; it is 1 without any effect and falls as sensitivity rises. For some of these results: Any top dose called inferred was calculated from the reported fits. For some of these results: An entry number marks a drug with two screens in the source, which often give different values.

By IC50 is commonly meant the concentration at which inhibition is half-maximal. For the cell line LB373-MEL-D (melanoma, adherent), the AUC with JNK-9L is 0.629; in the assay with 5-Fluorouracil it was 0.965; with OSU-03012, 0.88; with QS11, 0.967; with AC220 it was 0.986; with CUDC-101 it was 0.512. Also, the AUC was found to be 0.748 with RDEA119 (screen: GDSC drug entry 1014) and 0.694 with RDEA119 (screen: GDSC drug entry 1526). Besides, the IC50 was 718 nM with JNK-9L; over 32000 nM in the assay with 5-Fluorouracil; over 16000 nM with OSU-03012; over 10200 nM with QS11; over 1020 nM in the assay with AC220; 344 nM with CUDC-101. Besides, the concentration for half-maximal inhibition (IC50) with RDEA119 (screen: GDSC drug entry 1014) worked out at 1580 nM; with RDEA119 (screen: GDSC drug entry 1526), 1080 nM.
Turning to LB771-HNC (head and neck, adherent), the AUC with JNK-9L is 0.328; with 5-Fluorouracil, 0.928; with OSU-03012, 0.813; with QS11 it was 0.742; with AC220, 0.982; with CUDC-101 it was 0.964. Moreover, the AUC in the assay with RDEA119 (screen: GDSC drug entry 1014) was 0.969; in the assay with RDEA119 (screen: GDSC drug entry 1526) it was 0.848. In addition, the half-inhibitory concentration (IC50) with JNK-9L was 93 nM; with 5-Fluorouracil, over 32000 nM; in the assay with OSU-03012 it was 11500 nM; with QS11, 3830 nM; with AC220 it was over 1020 nM; with CUDC-101 it was over 5120 nM. Further, the half-maximal inhibitory concentration (IC50) in the assay with RDEA119 (screen: GDSC drug entry 1014) and with RDEA119 (screen: GDSC drug entry 1526) was over 5000 nM each time.
Take LB831-BLC (bladder, adherent): the AUC came to 0.521 with JNK-9L; 0.928 with 5-Fluorouracil; 0.851 with OSU-03012; 0.987 with QS11; 0.987 in the assay with AC220; 0.604 with CUDC-101. The AUC in the assay with RDEA119 (screen: GDSC drug entry 1014) is 0.872; with RDEA119 (screen: GDSC drug entry 1526) it was 0.926. Also, the IC50 was 366 nM with JNK-9L; over 32000 nM in the assay with 5-Fluorouracil; 12600 nM in the assay with OSU-03012; over 10200 nM with QS11; over 1020 nM in the assay with AC220; 622 nM with CUDC-101. Besides, the IC50 in the assay with RDEA119 (screen: GDSC drug entry 1014) was 4870 nM; in the assay with RDEA119 (screen: GDSC drug entry 1526), over 5000 nM.
With LB996-RCC (kidney, adherent), the AUC was found to be 0.586 with JNK-9L; 0.977 with 5-Fluorouracil; 0.863 with OSU-03012; 0.976 with QS11; 0.983 in the assay with AC220; 0.773 with CUDC-101. The AUC with RDEA119 (screen: GDSC drug entry 1014) is 0.939; with RDEA119 (screen: GDSC drug entry 1526) it was 0.853. Also, the IC50 was 572 nM in the assay with JNK-9L; over 32000 nM with 5-Fluorouracil; over 16000 nM in the assay with OSU-03012; over 10200 nM with QS11; over 1020 nM with AC220; 2320 nM with CUDC-101. Further, the results for the IC50 with RDEA119 (screen: GDSC drug entry 1014) and in the assay with RDEA119 (screen: GDSC drug entry 1526) were over 5000 nM and 4950 nM, respectively.
With LB1047-RCC (kidney, adherent), the AUC was 0.503 with JNK-9L; 0.938 with 5-Fluorouracil; 0.752 with OSU-03012; 0.91 with QS11; 0.98 with AC220; 0.566 with CUDC-101. The AUC with RDEA119 (screen: GDSC drug entry 1014) stood at 0.673; with RDEA119 (screen: GDSC drug entry 1526) it was 0.698. Also, the IC50 with JNK-9L is 326 nM; with 5-Fluorouracil it was over 32000 nM; in the assay with OSU-03012, 5910 nM; with QS11, over 10200 nM; with AC220, over 1020 nM; with CUDC-101, 497 nM. For the same cell line, the IC50 turned out to be 1010 nM in the assay with RDEA119 (screen: GDSC drug entry 1014) and 1220 nM with RDEA119 (screen: GDSC drug entry 1526).
On to LB2241-RCC (kidney, adherent), for which the AUC in the assay with JNK-9L was determined as 0.643; in the assay with 5-Fluorouracil, 0.971; with OSU-03012 it was 0.721; with QS11, 0.901; with AC220, 0.984; with CUDC-101, 0.784. In the assay with RDEA119 (screen: GDSC drug entry 1526), the AUC is 0.704. Besides, the IC50 with JNK-9L is 840 nM; in the assay with 5-Fluorouracil it was over 32000 nM; with OSU-03012, 4590 nM; with QS11, over 10200 nM; with AC220, over 1020 nM; in the assay with CUDC-101, 2460 nM. In the assay with RDEA119 (screen: GDSC drug entry 1526), the half-maximal inhibitory concentration (IC50) stood at 1270 nM.
Take LB2518-MEL (melanoma, adherent): the AUC with JNK-9L stood at 0.579; with 5-Fluorouracil, 0.97; in the assay with OSU-03012 it was 0.774; with QS11 it was 0.87; with AC220 it was 0.987; with CUDC-101, 0.68. Further, the AUC with RDEA119 (screen: GDSC drug entry 1014) was 0.341; with RDEA119 (screen: GDSC drug entry 1526) it was 0.421. Besides, the half-inhibitory concentration (IC50) is 531 nM with JNK-9L; over 32000 nM with 5-Fluorouracil; 6630 nM with OSU-03012; over 10200 nM with QS11; over 1020 nM with AC220; 1050 nM with CUDC-101. The IC50 with RDEA119 (screen: GDSC drug entry 1014) is 110 nM; with RDEA119 (screen: GDSC drug entry 1526) it was 187 nM.
In the case of “LC4-1 (lymphoblastic leukaemia, suspension)”, the AUC in the assay with JNK-9L came out at 0.507; with 5-Fluorouracil, 0.726; in the assay with OSU-03012 it was 0.767; with QS11, 0.954; with AC220, 0.908; in the assay with CUDC-101, 0.33. For the same cell line, the AUC stood at 0.952 in the assay with RDEA119 (screen: GDSC drug entry 1014) and 0.953 with RDEA119 (screen: GDSC drug entry 1526). The IC50 in the assay with JNK-9L was 336 nM; in the assay with 5-Fluorouracil, 9520 nM; with OSU-03012 it was 6580 nM; with QS11 it was over 10200 nM; with AC220, over 1020 nM; with CUDC-101, 102 nM. In addition, the IC50 with RDEA119 (screen: GDSC drug entry 1014) and in the assay with RDEA119 (screen: GDSC drug entry 1526) was over 5000 nM each time.
In the case of “LC-1-sq (lung squamous cell carcinoma, adherent)”, the AUC with JNK-9L came out at 0.738; in the assay with 5-Fluorouracil, 0.958; in the assay with OSU-03012 it was 0.867; in the assay with QS11, 0.977; with AC220, 0.983; in the assay with CUDC-101 it was 0.802. The AUC is 0.894 with RDEA119 (screen: GDSC drug entry 1014) and 0.971 with RDEA119 (screen: GDSC drug entry 1526). The half-inhibitory concentration (IC50) with JNK-9L was 1750 nM; with 5-Fluorouracil it was over 32000 nM; in the assay with OSU-03012 it was over 16000 nM; with QS11 it was over 10200 nM; with AC220 it was over 1020 nM; with CUDC-101, 3040 nM. The half-inhibitory concentration (IC50) with RDEA119 (screen: GDSC drug entry 1014) and with RDEA119 (screen: GDSC drug entry 1526) was over 5000 nM each time.

These data come from the supplement of paper PMC4967469.
